Measurements: the supplement of paper PMC12217912
The list shows a part of the results. Sequences were assembled here from the parent chain. Values near 0.05 are background.

B1: TEV protease; numbered along this chain (parent)
chain: MGESLFKGPRDYNPISSSICHLTNESDGHTTSLYGIGFGPFIITNKHLFRRNNGTLVVQSLHGVFKVKDTTTLQQHLVDGRDMIIIRMPKDFPPFPQKLKFREPQREERICLVTTNFQTKSMSSMVSDTSCTFPSGDGIFWKHWIQTKDGQCGSPLVSTRDGFIVGIHSASNFTNTNNYFTSVPKNFMELLTNQEAQQWVSGWRLNADSVLWGGHKVFMVKPEEPFQPVKEATQL

Variants of: B1
Assay: raw area under fraction-flipped curve 0-4 h after induction (AUC4h, not background-subtracted), DNA-recorder readout of cleavage of the substrate (dimensionless); higher = more cleavage of the substrate by the protease variant
Details: temperature: 34 °C; time window: 0-4 h after rhamnose induction
Procedure: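 In vivo DNA recorder in E. coli TOP10(DE3) ΔrhaA at 34 °C. Each TEVp single-site mutant (parent TEVp 0) is paired with a single-site variant of the 7-mer TEVs (canonical ENLYFQ|S). The substrate sits between flexible linkers in a Bxb1-sfGFP-TEVs-SsrA fusion, so cleavage stabilises Bxb1 and speeds flipping of a recombination array, read by NGS. The value is the raw area under the fraction-flipped curve over 0-4 h after rhamnose induction (AUC4h), with ≥20 reads per time point. It is not background-subtracted; inactive controls average about 0.047.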
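Note: Bxb1 expression induced with 0.2% (w/v) L-rhamnose at OD600 near 0.5, cultures sampled hourly, flipped fraction per protease–substrate barcode pair counted by paired-end Illumina sequencing.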

Row | Variant | area with substrate ANLYFQS | area with substrate DNLYFQS | area with substrate FNLYFQS | area with substrate GNLYFQS | area with substrate HNLYFQS | area with substrate INLYFQS | area with substrate LNLYFQS | area with substrate MNLYFQS | area with substrate QNLYFQS | area with substrate TNLYFQS | area with substrate VNLYFQS | area with substrate WNLYFQS | area with substrate CNLYFQS | area with substrate NNLYFQS | area with substrate PNLYFQS | area with substrate SNLYFQS | area with substrate YNLYFQS | area with substrate RNLYFQS | area with substrate KNLYFQS
1 | G28P | 0.0597 | 0.0678 | 0.0596 | 0.0669 | 0.0509 | 0.0596 | 0.0582 | 0.0503 | 0.0593 | 0.0605 | 0.0752 | 0.0669 |  |  |  |  |  |  | 
2 | G37E | 0.045 |  | 0.052 |  | 0.0498 | 0.039 | 0.0429 |  |  | 0.0402 | 0.0468 | 0.0423 | 0.039 | 0.0413 | 0.0445 | 0.0332 | 0.0399 |  | 
3 | L61D | 0.0662 | 0.0865 | 0.0608 |  | 0.0553 | 0.0417 | 0.0573 |  |  | 0.0645 | 0.0776 | 0.0646 |  | 0.064 | 0.0688 |  | 0.0653 | 0.0596 | 
4 | N193I | 0.0457 | 0.0536 |  | 0.0711 |  |  | 0.0603 | 0.0729 |  | 0.0692 | 0.0639 | 0.0509 | 0.0836 |  | 0.0596 | 0.0648 |  |  | 0.072
5 | I164T | 0.061 |  | 0.0547 | 0.0434 | 0.0579 | 0.0539 | 0.0589 | 0.0594 |  | 0.06 |  | 0.0533 | 0.0561 |  | 0.0517 | 0.0576 | 0.0506 |  | 0.0572
6 | N53I | 0.0534 |  |  |  | 0.0578 |  | 0.054 | 0.0451 |  | 0.0392 |  | 0.0535 | 0.0711 | 0.0407 | 0.054 | 0.0419 |  | 0.0523 | 
7 | N24L |  |  | 0.0488 | 0.0686 | 0.0859 |  | 0.0677 | 0.0945 | 0.0784 | 0.0706 |  | 0.0599 | 0.0741 | 0.0616 | 0.0724 |  | 0.0663 | 0.0955 | 0.0753
8 | H143L | 0.0612 |  |  |  | 0.0865 | 0.0524 | 0.0568 |  | 0.112 |  |  | 0.055 | 0.0686 | 0.0607 | 0.0578 |  | 0.0673 |  | 
9 | G8V |  |  |  |  |  |  |  |  |  |  |  | 0.0729 | 0.0646 | 0.0659 |  | 0.0582 |  |  | 
10 | G8R |  |  |  | 0.0716 |  |  | 0.0561 |  |  | 0.0775 |  |  |  |  |  | 0.0699 |  |  | 0.0601
11 | M125K | 0.0671 |  | 0.0657 |  | 0.0643 | 0.0586 | 0.0704 | 0.072 |  | 0.0566 | 0.0674 | 0.0626 | 0.0665 |  | 0.048 |  |  |  | 0.0796
12 | M88I |  |  | 0.057 | 0.0663 | 0.0741 |  | 0.0556 |  | 0.056 | 0.062 |  |  | 0.0729 | 0.0694 |  | 0.0654 |  |  | 0.0755
13 | G136M |  |  | 0.0625 |  | 0.0798 |  |  | 0.0847 |  |  |  |  | 0.0573 | 0.0391 | 0.0668 |  |  |  | 0.0595
14 | T181Y | 0.0562 |  | 0.0848 |  | 0.0617 |  |  | 0.0593 |  | 0.0564 |  | 0.0676 | 0.0806 | 0.0412 | 0.05 | 0.0548 | 0.047 |  | 0.0535
15 | F140E | 0.0682 |  | 0.0803 |  | 0.0609 | 0.0505 | 0.0643 |  | 0.0593 | 0.0598 | 0.0625 | 0.0648 | 0.0569 | 0.0523 | 0.0557 | 0.0551 | 0.0562 | 0.042 | 0.0684
16 | W212D | 0.0551 |  | 0.0558 |  | 0.0417 | 0.0727 | 0.072 | 0.0607 | 0.0669 | 0.0423 | 0.0561 | 0.0595 | 0.0456 |  | 0.0744 | 0.0722 |  |  | 
17 | F187C | 0.0941 |  | 0.0574 | 0.0586 | 0.0572 |  |  |  |  | 0.0781 |  | 0.0287 | 0.074 |  |  |  | 0.0794 |  | 
